# Screen size: about 420,000 compounds; about 64,000 (15%) were called active. Inconclusive means that the source gave no clear call. Such entries were picked first, then a sample of the others. The call rests on the fitted dose curve; in most records, active means well fitted inhibition curve with a large enough effect; inconclusive means small, poorly fitted or top-dose-only effect; inactive means flat fitted curve, though single readings scatter. Potencies of inconclusive entries are left out as doubtful fits.
# Test: qHTS for Inhibitors of human tyrosyl-DNA phosphodiesterase 1 (TDP1): qHTS in cells in absence of CPT; further: nearly all actives have a fitted effect of over 55% in size
# Conditions: DT40 Tdp1-/- hTDP1 cells, no CPT, ATP luminescence, 48 h; activity change, negative = growth inhibition: at 46.2 µM (top of the series) unless noted
# Outline: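 Compound effects on proliferation are scored in DT40 Tdp1-/-;hTDP1 cells in the absence of CPT. ATP levels (CellTiter-Glo luminescence) are recorded after a ≥48 hr, 37 °C incubation.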
# On the % scale 0 is the no-effect control and ±100 the full control effect; potency means the concentration at half of the fitted maximal effect; tags describe the fitted curve by direction and shape.
Compound,Potency,"activity change, negative = growth inhibition"
O=C(NCc1ccc(Cl)cc1)c1ccc(CSCc2cccc(Cl)c2)o1,"inconclusive [inhibitor, single point]",
CCN(CC(=O)NCc1cccs1)C(=O)c1ccccc1Cl,,inactive: -4.59%
COc1ccc(NC(=O)c2cc3n(n2)C(C(F)(F)F)CC(c2ccco2)N3)cc1 (stereo not drawn),"inconclusive [inhibitor, single point]",
COc1ccccc1CNc1cc(-c2ccccc2C)ncn1,active: 4.11 µM,
O=C(/C=C/c1ccco1)Nc1ccc(Oc2ccc(Cl)cc2)cc1,active: 3.26 µM,
COCCNc1nc(-c2ccc(Cl)cc2C)c2sccc2n1,"inconclusive [inhibitor, single point]",
COc1ccc(-c2cc3c(o2)CCCC3OCCN2CCOCC2)cc1 (stereo not drawn),"inconclusive [inhibitor, single point]",
CCOc1ccccc1NC(=O)CSc1nc2c(c(=O)[nH]1)CCC2,"inconclusive [inhibitor, single point]",
C=CCN(CC=C)CC(=O)Nn1c(C)ccc1C,"inconclusive [inhibitor, single point]",
CCc1nc2ccc(C(=O)NCc3ccc(OC)cc3)cn2c1N(C)Cc1ccc(OC)cc1,active: 20.6 µM,
COc1cccc(Cn2cnc3c([N+](=O)[O-])c(C)c(C)cc32)c1,"inconclusive [inhibitor, single point]",
CC(C)Cn1c(N)c(C(=O)COC(=O)c2ccccc2F)c(=O)n(C)c1=O,"inconclusive [inhibitor, partial curve]",
O=C(Nc1cc(S(=O)(=O)N2CCOCC2)ccc1N1CCCCC1)c1ccccc1,active: 20.6 µM,
Nc1[nH]c(C(=O)c2ccccc2)c(-c2ccc(Cl)cc2)c1C(=O)NCc1ccccc1,,inactive: -16.3%
COc1ccc(NC(=O)c2ccc3ccccc3c2)cc1NS(=O)(=O)c1ccc(F)cc1,"inconclusive [inhibitor, single point]",
O=C(NCC1CC1)C1(C(F)(F)F)C/C(=C\Cc2ccccc2)CCCO1 (stereo not drawn),"inconclusive [inhibitor, single point]",
CCCN(S(=O)(=O)c1ccccc1F)S(=O)(=O)c1ccccc1Br,"inconclusive [inhibitor, partial curve, poor fit]",
CN(C)c1oc(-c2ccccc2Cl)nc1C#N,"inconclusive [inhibitor, single point]",
CC1(C(=O)NS(=O)(=O)c2ccc(Cl)s2)CCN1C(=O)C1CCCCC1 (stereo not drawn),active: 7.31 µM,

Compound,Potency,"activity change, negative = growth inhibition"
O=C(c1ccncc1)N1CCC2(CC1)CCN(C(c1ccccc1)c1ccccc1)CC2,"inconclusive [inhibitor, partial curve, poor fit]",
Cc1ccnc(NS(=O)(=O)c2ccc(NC(=O)C(C)(C)Oc3ccc(Cl)cc3)cc2)n1,,inactive: 0.698%
COc1ccc(OCc2nc3ccccc3n2C(C)c2ccccc2)cc1 (stereo not drawn),"inconclusive [inhibitor, partial curve]",
O=C(Nc1ccc(N2CCOCC2)nc1)c1ccccc1Cl,,inactive: -3.37%
O=C(Cn1cnc2ccccc21)NC(c1ccccc1)c1ccccc1,,inactive: -33.5%
Cc1oc2cc(O)cc(O)c2c(=O)c1-c1ccc2c(c1)OCCCO2,"inconclusive [inhibitor, single point]",
Cc1ccsc1/C=N/NC(=O)c1nnn(-c2nonc2N)c1C,,inactive: -1.57%
O=C(COC(=O)C1CC1)Nc1ccc(Oc2ccccc2)cc1,"inconclusive [inhibitor, single point]",
Cc1cc(SCC(=O)NN)c2cc(Br)ccc2n1,"inconclusive [inhibitor, single point]",
CCN1C(=O)/C(=C/c2ccc(OCc3ccc(C(=O)O)cc3)c(Cl)c2)NC1=S,,inactive: -3.34%
C#CCOc1ccc(Br)cc1/C=N/O,"inconclusive [inhibitor, single point]",
O=C1CSC(=S)N1/N=C/c1ccc(O)c([N+](=O)[O-])c1,"inconclusive [inhibitor, single point]",
COCCNC(=O)CSc1cc(-c2ccccc2)c2ccc(OC)cc2n1,"inconclusive [inhibitor, partial curve]",
Cc1cccc(C(C)C)c1NC(=O)c1ccc(CN(c2ccccc2)S(=O)(=O)c2ccccc2)cc1,"inconclusive [inhibitor, single point]",
Cc1cc(C)c2c(CC(=O)Nc3ccc(S(=O)(=O)N4CCCC(C)C4)cc3)coc2c1 (stereo not drawn),active: 23.1 µM,
COC(=O)c1c(C)oc(C)c1S(=O)(=O)N(C)C1CCCCC1,"inconclusive [inhibitor, single point]",
CCOc1ccccc1C(=O)NCCCn1ccnc1,,inactive: -10.6%
CCN(CC(=O)NC(c1ccccc1)c1ccccc1)Cc1nc2ccccc2c(=O)[nH]1,"inconclusive [inhibitor, partial curve]",
CCOC(=O)C1=C[C@@H](C(C)(C)C)N(S(=O)(=O)c2ccc(C)cc2)[C@H]1c1cccc(Cl)c1,active: 13 µM,

# From PubChem BioAssay AID686978 (National Center for Advancing Translational Sciences (NCATS), 2013)
